Measured values from PubChem BioAssay AID904 (National Center for Advancing Translational Sciences (NCATS), 2007).
Out of some 55,000 compounds screened, about 530 (0.96%) were called active. Inconclusive means that the source gave no clear call. Such entries were picked first, then a sample of the others. Calls follow the shape of the dose curve; as a rule, active = well fitted cell-killing curve with a large enough effect; inconclusive = small, poorly fitted or top-dose-only effect; inactive = no such curve, though single readings can be large or run the other way. Where the call is inconclusive, the potency comes from a doubtful curve fit.

Experiment: qHTS Screen for Compounds that Selectively Target Cancer Cells with p53 Mutations: Cytotoxicity of p53 Null Cells at the Nonpermissive Temperature; also: nearly all actives have a fitted effect of over 50% in size;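 as to activity, negative = cell killing: 0% = DMSO only and -100% = full killing by 100 µM tamoxifen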
Settings: H1299 p53-null (neo) cells, 39C, ATPlite viability, 24 h; activity, negative = cell killing: at 46.1 µM (top of the series)
Outline: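 Temperature-shift cytotoxicity format: compound titrations on p53-null or A138V-expressing H1299 cells held 24 hr at 39C, cell ATP then measured, AC50 from Hill model.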
Potency is read from the fitted curve at half-maximal effect; tags tell the direction and shape of the fitted curve.

| Compound | Potency | activity, negative = cell killing |
| --- | --- | --- |
| Cc1ccc(-c2nc3nc(C)cc(Nc4ccccc4O)n3n2)cc1 | inconclusive: 0.282 µM [cytotoxic, full curve] |  |
| CCNc1ccc(-c2nc(-c3ccco3)no2)cc1[N+](=O)[O-] |  | inconclusive: -40.6% [cytotoxic] |
| Cc1ccc2scc(N3CCN(c4ccc(F)cc4)CC3)c(=O)c2c1 | inconclusive: 0.141 µM [cytotoxic, full curve, poor fit] |  |
| O=C1c2[nH]nc(-c3ccc(Br)cc3)c2C(c2cccc(O)c2)N1c1ccc(Cl)cc1 (stereo not given) | inconclusive: 15.8 µM [cytotoxic, single point] |  |
| O=C(N/N=C/c1ccccc1O)/C(=C/c1ccccc1)CCO | inconclusive: 3.16 µM [cytotoxic, partial curve] |  |
| CCc1c(C)nc2nncn2c1NCc1ccc(Cl)cc1 | inactive |  |
| Cc1ccc(NC(=O)Cn2nc(Cc3ccncc3)c3ccccc3c2=O)c(Cl)c1 | inactive |  |
| COc1cc(C(=O)NCC(c2ccc(Cl)cc2)N2CCOCC2)cc(OC)c1OC (stereo not given) | inconclusive: 0.316 µM [cytotoxic, full curve] |  |
| COc1ccc(Cl)cc1NC(=O)c1c(NCc2cccnc2)sc2c1CCC(C)C2 (stereo not given) | inactive |  |
| CCOc1ccccc1CNC(=O)CCCn1ccc2cc(S(=O)(=O)N3CCCC3)ccc21 | inconclusive: 0.126 µM [cytotoxic, partial curve, poor fit] |  |
| CCn1c(=O)cc(OCC(=O)N(C)c2cc(Cl)ccc2C)c2ccccc21 | inconclusive: 31.6 µM [cytotoxic, single point] |  |
| Oc1ccc(NCc2ccccc2OCc2ccc(Cl)cc2)cc1 | inconclusive: 31.6 µM [cytotoxic, single point] |  |
| Cc1oc2c(C)c3oc(=O)c(CC(=O)N4CCCCC4)c(C)c3cc2c1C | inconclusive: 31.6 µM [cytotoxic, single point] |  |
| CCc1nn(C(C)C(=O)N2CCN(c3ccccc3)CC2)c(=O)c2cc3occc3n12 (stereo not given) | inconclusive: 0.0126 µM [cytotoxic, full curve] |  |
| Cc1cccc(N2CCN(C(=O)C3CCN(c4ncnc5c4nc4n5CCCCC4)CC3)CC2C)c1 (stereo not given) | inconclusive: 35.5 µM [cytotoxic, single point] |  |
| O=C(CSCc1cnn(-c2ccccc2)c1-n1cccc1)NCc1cccc(Cl)c1 | inconclusive: 12.6 µM [cytotoxic, single point] |  |
| N#Cc1c(-n2ncnc2-c2ccc(F)cc2)sc2c1CCCCC2 | inconclusive: 12.6 µM [cytotoxic, single point] |  |
| Cc1ccc(NC(=O)Cn2cc(S(=O)(=O)Cc3ccc(F)cc3)c3ccccc32)cc1Cl | inconclusive: 11.2 µM [cytotoxic, partial curve, poor fit] |  |
| Cc1cc(C)c2c(CC(=O)N(Cc3ccc(Cl)cc3)Cc3ccco3)coc2c1 | inconclusive: 10 µM [cytotoxic, partial curve] |  |
| Cc1ccc(C)c(N2CCN(CCCNC(=O)c3ccc4nc(CCc5ccccc5)oc4c3)CC2)c1 | inconclusive: 31.6 µM [cytotoxic, single point] |  |

| Compound | Potency | activity, negative = cell killing |
| --- | --- | --- |
| CCOC(=O)Cn1c(=O)n(C2CCCCC2)c2nc(-c3c(F)cccc3Cl)nc(C(N)=O)c21 | inconclusive: 0.316 µM [cytotoxic, full curve] |  |
| Cc1ccc(-c2cn3ccc(C)cc3n2)cc1 | active: 0.794 µM |  |
| CC(C)CCn1c(/C=C/c2ccccc2)nc2ccccc21 | inconclusive: 12.6 µM [cytotoxic, partial curve] |  |
| CCc1ccc(C2=CC(c3c(F)cccc3Cl)n3c(nc4ccccc43)N2)cc1 (stereo not given) | inconclusive: 10 µM [cytotoxic, partial curve, poor fit] |  |
| Cc1c(C(=O)Nc2ccc(F)c(C(F)(F)F)c2)sc2nc(-c3ccccc3)cn12 | inconclusive: 11.2 µM [cytotoxic, single point] |  |
| CCOc1ccc(S(=O)(=O)NCCc2c(C)[nH]c3c(Cl)cccc23)cc1C | inactive |  |
| COc1ccc(NC2=C(c3ccccc3)C(=O)c3ccccc32)cc1Cl | inconclusive: 31.6 µM [cytotoxic, single point] |  |
| CC(C)(C)c1ccc2c(c1)N(CC(=O)NCCCN1CCN(c3ccccc3F)CC1)C(=O)CO2 | inconclusive: 11.2 µM [cytotoxic, partial curve] |  |
| COc1ccc(C(=O)Nc2ccc3nc(SCC(=O)N(C)c4ccccc4)sc3c2)cc1 | inconclusive: 3.98 µM [cytotoxic, full curve, poor fit] |  |
| O=C(Nc1nc2ccc(F)cc2s1)c1nc(S(=O)(=O)Cc2ccccc2F)ncc1Cl | inconclusive: 31.6 µM [cytotoxic, single point] |  |
| Cc1ccc(NC(=O)c2cc3ccccn3n2)cc1F | inconclusive: 0.398 µM [cytotoxic, partial curve] |  |
| CC(C)(C)c1ccc(OCC(=O)NCC2(N3CCOCC3)CCCCC2)cc1 | inconclusive: 31.6 µM [cytotoxic, single point] |  |
| O=C(CSc1nc2ncccc2o1)Nc1cccc(C(F)(F)F)c1 | inconclusive: 10 µM [cytotoxic, partial curve] |  |
| CCOc1cc(CNC(=O)c2ccc3nc(C(C)C)oc3c2)cc(OCC)c1OCC | inconclusive: 0.158 µM [cytotoxic, full curve, poor fit] |  |
| Cc1ccc2nc(-c3ccc(C)o3)c(Nc3ccc4c(c3)OCCO4)n2c1 | inconclusive: 14.1 µM [cytotoxic, partial curve, poor fit] |  |
| COc1ccc(C2=C(Nc3ccc(C)cc3C)c3ccccc3C2=O)cc1 | inactive |  |
| CC(CCc1ccccc1)NC(=O)Cn1c(=O)nc(-c2ccccc2)c2ccccc21 (stereo not given) | inconclusive: 11.2 µM [cytotoxic, partial curve] |  |
| CCCCN(CCCNC(=O)c1cc(Nc2ccc(OC)c(OC)c2)nc2ccccc12)c1ccccc1 | inactive |  |
| O=S(=O)(c1cccc2ccccc12)N1CCN(c2ccc(Cl)c(Cl)c2)CC1 | inactive |  |
| COc1cc(NC(=O)CSc2ccc(-c3ccccn3)nn2)cc(OC)c1 | inconclusive: 0.501 µM [cytotoxic, full curve] |  |
